In paper PMC12143593, “Selective engineering of condensation properties of single-stranded DNA binding (SSB) protein via its intrinsically disordered linker region” (Nucleic Acids Research, 2025):

B1: EcSSB R116D–W136D (natural protein)
chain: not shown
notes: E. coli SSB (EcSSB) with two aspartates introduced in the IDL; not shown: His6, N-terminal, cleaved
B2: EcSSB W136D (natural protein)
chain: not shown
notes: E. coli SSB (EcSSB) with an aspartate introduced in the IDL; not shown: His6, N-terminal, cleaved
B3: EcSSB dC (construct lacking the CTP, […]) (domain or fragment)
chain: not shown
notes: E. coli SSB (EcSSB) lacking the C-terminal peptide, […]

What was measured:
Settings in all cases: both partners purified
[1] = molecular target: T1, RecQ helicase (UniProt P15043 1-609); experiment: fluorescence polarisation; competitive: RecQ–flCTP mixture (0.65 uM RecQ, 25 nM flCTP) titrated with EcSSB constructs (tetramer concentrations); 25°C; 20 mM Tris–acetate pH 8, 50 mM K-glutamate, 10 mM Mg-acetate; competitive binding scheme
T1 construct: RecQ helicase, a key partner of EcSSB; the discussion gives 82 kDa for RecQ helicase

[2] = molecular target: B1; experiment: fluorescence polarisation; competitive: dC (2.5 uM tetramer) complexed with 25 nM flCTP, titrated with EcSSB constructs (tetramer concentrations); 25°C; 20 mM Tris–acetate pH 8, 50 mM K-glutamate, 10 mM Mg-acetate; competitive binding scheme
[3] = molecular target: T2, EcSSB d1G (aa 114-120 deleted) (Escherichia coli, UniProt P0AGE0, aa 114–120 deleted); experiment: as above
T2 construct: E. coli SSB (EcSSB) lacking the first glycine-rich motif GGRQGGG of the IDL; not shown: His6, N-terminal, cleaved

[4] = molecular target: T3, wild-type Escherichia coli single-stranded DNA binding protein (EcSSB) (Escherichia coli, UniProt P0AGE0); experiment: as above
T3 construct: Homotetramer; also called WT; WT EcSSB; not shown: His6, N-terminal, cleaved

Chain of RecQ helicase (P15043 whole entry): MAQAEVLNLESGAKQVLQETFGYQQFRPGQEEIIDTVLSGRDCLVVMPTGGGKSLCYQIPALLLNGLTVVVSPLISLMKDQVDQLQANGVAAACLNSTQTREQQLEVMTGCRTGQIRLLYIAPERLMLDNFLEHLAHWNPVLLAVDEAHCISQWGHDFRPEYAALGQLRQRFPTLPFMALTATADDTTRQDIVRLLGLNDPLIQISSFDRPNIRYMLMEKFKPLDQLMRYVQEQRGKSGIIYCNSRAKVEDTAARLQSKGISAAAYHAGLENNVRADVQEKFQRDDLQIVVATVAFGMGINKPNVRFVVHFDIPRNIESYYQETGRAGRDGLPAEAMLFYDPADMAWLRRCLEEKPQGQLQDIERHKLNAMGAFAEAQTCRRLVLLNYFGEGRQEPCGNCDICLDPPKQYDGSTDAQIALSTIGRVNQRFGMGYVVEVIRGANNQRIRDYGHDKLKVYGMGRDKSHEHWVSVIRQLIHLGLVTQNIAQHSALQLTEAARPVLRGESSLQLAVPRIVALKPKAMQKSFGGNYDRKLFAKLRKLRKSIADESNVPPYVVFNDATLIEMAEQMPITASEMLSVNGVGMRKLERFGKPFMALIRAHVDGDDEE

B1 gave a Kd [1] of 17 nM.

In the case of B2, the Kd [1] is reported as 29 nM.

Work on B3 yielded a Kd [2] of 2500 nM, a Kd [3] of 220 nM and a Kd [4] of 2500 nM.
